In PubChem BioAssay AID1347165 (National Center for Advancing Translational Sciences (NCATS), 2019):
About 5,700 (2.6%) of roughly 220,000 compounds were called active. Inconclusive means that the source gave no clear call. Such entries were picked first, then a sample of the others. Calls follow the shape of the dose curve; as a rule, active = well fitted inhibition curve with a large enough effect; inconclusive = small, poorly fitted or top-dose-only effect; inactive = no such curve, though single readings can be large or run the other way. Potencies of inconclusive entries are doubtful fits and often do not repeat.

Molecular target: Lysine-specific demethylase 5B (Homo sapiens) (UniProt Q9UGL1)
Experiment: Primary screen for KDM5B Histone Demethylases FDH-coupled qHTS; also: nearly all actives have a fitted effect of over 70% in size; as to activity change, negative = inhibition: 0% is about no effect
Settings: FDH-coupled NADH fluorescence (FDH is formaldehyde dehydrogenase); activity change, negative = inhibition: at 57.7 µM (top of the series) unless noted
Outline: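 Here, H3K4me3 peptide (12.5 µM in substrate mix) is demethylated by KDM5BΔAP, 200 nM final, after 10 min compound exposure. Formaldehyde product is coupled through FDH (0.25 U/mL in mix) to NADH fluorescence; 30-min ΔRFU feeds dose-response curves.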
Potency is read from the fitted curve at half-maximal effect; tags tell the direction and shape of the fitted curve.

UniProt Q9UGL1, sequence (Q9UGL1 whole entry, looked up): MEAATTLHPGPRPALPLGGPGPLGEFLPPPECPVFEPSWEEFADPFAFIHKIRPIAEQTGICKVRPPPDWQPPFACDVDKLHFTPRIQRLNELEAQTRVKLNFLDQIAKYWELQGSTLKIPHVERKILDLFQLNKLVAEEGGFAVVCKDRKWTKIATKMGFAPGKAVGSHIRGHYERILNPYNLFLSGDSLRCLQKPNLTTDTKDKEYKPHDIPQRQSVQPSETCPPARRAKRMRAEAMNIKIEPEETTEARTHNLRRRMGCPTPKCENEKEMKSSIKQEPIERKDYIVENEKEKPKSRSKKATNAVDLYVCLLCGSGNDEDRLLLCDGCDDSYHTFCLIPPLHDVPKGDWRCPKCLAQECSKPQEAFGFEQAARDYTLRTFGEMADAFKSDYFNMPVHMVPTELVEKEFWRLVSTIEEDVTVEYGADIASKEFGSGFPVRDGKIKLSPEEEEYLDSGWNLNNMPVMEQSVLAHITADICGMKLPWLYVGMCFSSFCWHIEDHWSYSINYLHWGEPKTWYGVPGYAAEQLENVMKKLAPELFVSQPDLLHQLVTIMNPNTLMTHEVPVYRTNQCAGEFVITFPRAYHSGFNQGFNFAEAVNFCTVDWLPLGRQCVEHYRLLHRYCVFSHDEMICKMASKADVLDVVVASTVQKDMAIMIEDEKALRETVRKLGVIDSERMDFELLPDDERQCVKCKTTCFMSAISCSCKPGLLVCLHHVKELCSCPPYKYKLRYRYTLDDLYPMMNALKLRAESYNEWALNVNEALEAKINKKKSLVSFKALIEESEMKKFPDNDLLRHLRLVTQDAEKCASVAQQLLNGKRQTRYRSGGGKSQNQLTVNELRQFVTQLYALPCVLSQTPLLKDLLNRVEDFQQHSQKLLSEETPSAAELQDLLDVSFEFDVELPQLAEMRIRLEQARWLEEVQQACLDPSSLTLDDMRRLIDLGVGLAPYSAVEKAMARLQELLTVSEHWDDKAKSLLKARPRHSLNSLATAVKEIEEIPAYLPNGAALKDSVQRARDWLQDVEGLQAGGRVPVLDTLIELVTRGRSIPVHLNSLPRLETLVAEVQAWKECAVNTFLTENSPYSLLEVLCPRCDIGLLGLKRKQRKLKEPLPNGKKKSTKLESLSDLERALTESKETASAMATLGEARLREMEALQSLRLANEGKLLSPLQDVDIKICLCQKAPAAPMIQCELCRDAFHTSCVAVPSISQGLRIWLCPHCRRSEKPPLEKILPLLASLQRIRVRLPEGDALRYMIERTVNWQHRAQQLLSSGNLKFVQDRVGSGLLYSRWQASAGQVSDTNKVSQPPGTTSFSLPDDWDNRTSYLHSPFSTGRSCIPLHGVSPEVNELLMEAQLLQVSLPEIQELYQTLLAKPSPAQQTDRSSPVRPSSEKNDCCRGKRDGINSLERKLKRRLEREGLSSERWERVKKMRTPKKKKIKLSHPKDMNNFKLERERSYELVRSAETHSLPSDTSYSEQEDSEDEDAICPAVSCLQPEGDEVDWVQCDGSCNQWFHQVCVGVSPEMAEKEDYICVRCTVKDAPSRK

Structure (SMILES) | Potency | activity change, negative = inhibition
CN1CCN(C(=O)Cn2c(-c3ccccc3)cc3ccccc32)CC1 | inconclusive: 22.4 µM [inhibitor, partial curve, poor fit] | –
COc1cc(C(=O)NC2CCCN(c3ncccn3)C2)cc(OC)c1OC (centres undefined) | inconclusive: 28.2 µM [inhibitor, single point] | –
Cc1c(CC(=O)O)c(=O)oc2c(C)c(OCc3ccc(F)cc3F)ccc12 | inconclusive: 15.8 µM [inhibitor, partial curve, poor fit] | –
CNC(=O)c1cc2cc(-c3c(C)noc3C)nc(-c3ccccc3C)c2o1 | active: 35.5 µM | –
COc1cc(F)ccc1-c1nc(N2CCOCC2)cc2c1CN(c1ccccc1)C2=O | active: 10 µM | –
Cc1c(Cl)c(CSc2nccn2C)nc2ccccc12 | – | inactive: 7.46%
Cc1cc(-n2c(SCC(=O)NC(C)(C)C)nc3ccsc3c2=O)ccc1F | inconclusive: 39.8 µM [inhibitor, single point] | –
CCOc1ccc(CNC(=O)c2ccc3c(c2)sc2nc(-c4ccccc4)cn23)cc1 | inconclusive: 2.24 µM [inhibitor, full curve, poor fit] | –
Cc1ccc(CN2C[C@@H](CO)[C@H](c3ccccn3)C2)nc1 | inconclusive: 14.1 µM [inhibitor, partial curve] | –
CCOCCc1nnc(NC(=O)C(=O)c2cc(C)n(-c3cccc(C)c3)c2C)s1 | inconclusive: 28.2 µM [inhibitor, single point] | –
COc1ccc(-c2cc3nc4c(c(=O)n3[nH]2)CN(C(=O)CC(C)C)CC4)cc1 | inconclusive: 10 µM [inhibitor, partial curve, poor fit] | –
Cc1ccc(NC(=O)c2ccccc2NCC(=O)N2CC(=O)Nc3ccccc32)cc1 | inconclusive: 35.5 µM [inhibitor, partial curve, poor fit] | –
CCOC(=O)N1CCN(C2CCCN(Cc3cc(C)ccc3-n3cccn3)C2)CC1 (centres undefined) | inconclusive: 7.08 µM [inhibitor, partial curve] | –
Cc1nn2c(c1-c1ccccc1OCc1ccccc1)N(CC1CC1)CCC2 | active: 35.5 µM | –
CN(C)CCN(C(=O)c1ccco1)c1nc2c(F)cc(F)cc2s1 | inconclusive: 28.2 µM [inhibitor, partial curve, poor fit] | –
CC1CCN(C(=O)CSc2c3c(nc4ccc(Cl)cc24)CCCC3)CC1 | – | inconclusive: -33.1% [inhibitor]
CCc1nn2c(=O)cc(CNc3cccc(C(=O)NC4CC4)c3)nc2s1 | inconclusive: 25.1 µM [inhibitor, single point] | –
Cc1cccc(NC(=O)CSc2nc3ccccc3nc2N2CCC(C)CC2)c1 | inconclusive: 35.5 µM [inhibitor, single point] | –
Cc1ccccc1Oc1ncccc1CNC(=O)c1cnn2ccccc12 | inconclusive: 28.2 µM [inhibitor, partial curve, poor fit] | –
CCOc1ccc(N(Cc2ccccc2)C(=O)c2nc(SCC)ncc2Cl)cc1 | – | inconclusive: -36.5% [inhibitor]
C=CCN1CCN(Cc2cccc(OCC(O)CN(C)C3CCCCC3)c2)CC1 (centres undefined) | inconclusive: 12.6 µM [inhibitor, partial curve] | –
CCN1C(=O)CCN(Cc2ccc(C)c(C)c2)CC12CCOCC2 | – | inactive: -4.94%
CN1Cc2ccc(Nc3ccccc3)nc2C(C)(C(=O)NCc2cccs2)C1 (centres undefined) | active: 31.6 µM | –

Structure (SMILES) | Potency | activity change, negative = inhibition
Cc1cc(O)c(C2CCCCC2)cc1C1CCCCC1 | – | inactive: -13.7%
COc1cc(C(=O)NC2CCN(c3cc(-c4ccc(Cl)cc4)[nH]n3)C2)cc(OC)c1OC (centres undefined) | inconclusive: 3.55 µM [inhibitor, partial curve, poor fit] | –
CC(C)n1ccc2nc3ccn(-c4ncn[nH]4)c(=O)c3cc2c1=O | inconclusive: 1.78 µM [inhibitor, full curve, poor fit] | –
Cc1cc2c(cc1C(=O)N[C@H](c1ccccn1)C1CC(O)C1)OCCO2 (some centres undefined) | – | inactive: -9.27%
CC(Oc1ccc(-c2ccc(C#N)cc2)cc1)c1ccc(F)cc1 (centres undefined) | inconclusive: 28.2 µM [inhibitor, partial curve, poor fit] | –
CCn1c(=O)c(-c2noc(C(=O)N3CCC(c4ccccc4)C3)n2)nn(-c2ccccc2)c1=O (centres undefined) | – | inactive: -22.2%
O=C(NC(c1ccccc1)c1cc2ccccc2o1)C1CC1 (centres undefined) | – | inactive: 20.2%
Cc1ccc(C(=O)COC(=O)c2ccccc2O)s1 | – | inactive: -3.8%
O=C(NCc1ccc(CN2CCCC2)cc1)c1cc(=O)[nH]c2ccccc12 | inconclusive: 25.1 µM [inhibitor, single point] | –
CCc1c(C)sc(NC(=O)c2ccccc2C)c1C#N | inconclusive: 39.8 µM [inhibitor, single point] | –
O=C(NCC1CCCCC1)c1ccc2c(c1)N(S(=O)(=O)c1ccccc1)CC2 | – | inactive: -4.6%
CC1C/C(=N/NC(=S)Nc2ccc(SC(F)F)cc2)CC(C)(C)C1 (centres undefined) | inconclusive: 25.1 µM [inhibitor, single point] | –
CC(C)CN1C(=O)c2cccn2CC1C(=O)O (centres undefined) | inconclusive: 17.8 µM [inhibitor, partial curve, poor fit] | –
O=C1N[C@H](CCC(=O)N2CCN(Cc3ccccc3)CC2)C(=O)Nc2ccccc21 | – | inactive: -22.7%
Cc1ncsc1C(=O)N1CCC2(CCCN(CC3CCCCC3)C2=O)C1 (centres undefined) | inconclusive: 4.47 µM [inhibitor, single point] | –
COc1cc(NC(=O)Cn2ccn3nc4c(c3c2=O)CCCCC4)cc(OC)c1 | inconclusive: 31.6 µM [inhibitor, single point] | –
O=[N+]([O-])c1ccccc1CN1C[C@H](O)C[C@H]1c1nc(-c2ccncc2)no1 | inconclusive: 35.5 µM [inhibitor, single point] | –
CC(=O)NCCc1ccc(C(=O)COC(=O)c2cc(C)ccc2O)s1 | – | inactive: -17.1%
O=C(O)CC(NNC(=O)c1ccccc1)C(=O)Nc1ccc([N+](=O)[O-])cc1 (centres undefined) | inconclusive: 14.1 µM [inhibitor, partial curve, poor fit] | –
O=C(Cc1c[nH]c2ccccc12)NCCc1ccc(F)cc1 | – | inactive: 9.32%
COc1ccc(-c2nc3c4ccccc4n(CC(=O)Nc4ccc(C(C)C)cc4)c(=O)n3n2)cc1 | – | inconclusive: -47.8% [inhibitor]
Cc1ccc(-c2ccc3nnc(CNC(=O)Cc4cccc(F)c4)n3n2)cc1C | inconclusive: 28.2 µM [inhibitor, partial curve, poor fit] | –
CCC1(CO)CCCN(S(=O)(=O)c2ccc3c(c2)OCCO3)C1 (centres undefined) | inconclusive: 25.1 µM [inhibitor, single point] | –

Structure (SMILES) | Potency | activity change, negative = inhibition
CC1CCCN(c2ncnc3c2cnn3-c2ccc(F)cc2)C1 (centres undefined) | inconclusive: 39.8 µM [inhibitor, single point] | –
CCN1c2ccccc2-n2cccc2C12CCN(C(=O)Nc1ccccc1Br)CC2 | inconclusive: 15.8 µM [inhibitor, partial curve, poor fit] | –
O=C(c1ccc(C2CCCNC2)cc1)N1CCN(c2ccncc2)CC1 (centres undefined) | inconclusive: 1 µM [inhibitor, partial curve, poor fit] | –
CCCCn1cc(S(=O)(=O)c2ccccc2)c(=O)c2cc(F)c(N3CCN(CCC)CC3)cc21 | inconclusive: 3.16 µM [inhibitor, full curve, poor fit] | –
CCOCCn1ccc2c(OCC(=O)NCc3ccc(F)cc3)cccc2c1=O | inconclusive: 39.8 µM [inhibitor, single point] | –
COc1ccccc1CC(=O)N[C@@H]1CN(C2CCOCC2)C[C@H]1CN(C)C | inconclusive: 31.6 µM [inhibitor, partial curve] | –
CCCCCCC(=O)Nc1ccc(C)cc1C | – | inactive: 17.9%
CC(O)C(=O)Nc1ccc(C(N)=O)cc1 (centres undefined) | – | inactive: 6.15%
CCN1CCN(c2oc(/C=C/c3cccs3)nc2C#N)CC1 | inconclusive: 22.4 µM [inhibitor, partial curve, poor fit] | –
Fc1ccc(CNC(=S)NCc2ccccc2Br)cc1 | – | inactive: -8.39%
Cc1cc(S(=O)(=O)N2C[C@@H](F)C[C@H]2C(=O)N2CCc3ccccc3C2)ccc1F | inconclusive: 14.1 µM [inhibitor, partial curve, poor fit] | –
O=c1c(N2CCN(c3ccccc3)CC2)csc2ccc(Cl)cc12 | inconclusive: 17.8 µM [inhibitor, partial curve, poor fit] | –
CN(C)[C@@H]1CN(C(=O)c2ccoc2)CC[C@]1(O)c1ccccc1 | – | inactive: -10.2%
C=CCc1c(C)[nH]c2c(OC)cccc2c1=S | inconclusive: 39.8 µM [inhibitor, single point] | –
Cc1cc(SCc2c(F)c(F)c(F)c(F)c2F)nc2ccccc12 | – | inactive: -4.76%
COCCn1cnnc1SCc1nc2cc(Cl)ccc2n1Cc1ccccc1 | – | inactive: 13.7%
Cn1c(SCC(=O)NCc2ccccc2CN2CCOCC2)nnc1-c1ccc(C(C)(C)C)cc1 | – | inactive: 0.778%
CCCN(CCO)CC(=O)NC(CC)CC | – | inactive: 0.939%
N#Cc1ccc(CN2CCC3(CC2)COc2ccccc2NC3=O)cc1 | – | inactive: -7.33% [at 86.2 µM]
CCC1NC(=O)c2ccccc2N1c1cccc(Cl)c1 (centres undefined) | inconclusive: 35.5 µM [inhibitor, single point] | –
O=C(O)c1ccc(NCc2nc3ccccc3n2CCOc2ccccc2Cl)cc1 | inconclusive: 25.1 µM [inhibitor, single point] | –
COc1cc2c(=O)n(Cc3ccco3)c(=O)n(CC(=O)Nc3ccc(F)cc3)c2cc1OC | inconclusive: 3.16 µM [inhibitor, full curve, poor fit] | –
COc1ccc(Cl)cc1C(=O)NCc1nnc2cc(-c3nc(C(C)C)no3)ccn12 | inconclusive: 1.26 µM [inhibitor, full curve] | –
